Measured values taken from PubChem BioAssay AID504832 (National Center for Advancing Translational Sciences (NCATS), 2011).
In all, about 310,000 compounds went through this assay and about 18,000 (5.8%) were called active. Inconclusive results, whose numbers are uncertain, are shown with a selection of clear calls. The call rests on the fitted dose curve; in most records, active means well fitted inhibition curve with a large enough effect; inconclusive means small, poorly fitted or top-dose-only effect, or another doubt; inactive means no such curve, though single readings can be large or run the other way. Potencies of inconclusive entries are left out as doubtful fits.

Test: Primary qHTS for delayed death inhibitors of the malarial parasite plastid, 48 hour incubation
Conditions: P. falciparum luciferase growth in erythrocytes; series mostly up to 28.7 µM
Excerpt: The goal of this screen is to discover new antimalarial compounds that act by inhibiting the development of the apicoplast in the malarial parasite Plasmodium falciparum. The biochemical processes that make this organelle essential for erythrocytic stage parasites are not well understood. However, antibiotics such as azithromycin and tetracycline, which target the apicoplast translational machinery, have a potent antimalarial effect.
We have developed a cell-based assay that measures parasite growth based on the expression of an integrated copy of a firefly luciferase reporter. To detect small molecules that cause this "delayed death" phenotype, erythrocytes infected with the luciferase-expressing parasites were incubated with compounds for either one or two generations, corresponding to 48 and 96 hours, respectively. Compounds that inhibit parasite growth in the second generation, but not the first, should be enriched in antimalarials that target the apicoplast. Growth inhibition is detected by a decrease in luciferase activity.
Assay Provider: David Fidock and Eric Ekland, Columbia University
Keywords: NIH Roadmap, MLPCN, MLI, MLSMR, qHTS, NCGC, qHTS, malaria, luciferase, viability
Four microliters of culture medium (RPMI 1640 with 0.5% w/v Albumax (GIBCO), 24 mM sodium bicarbonate and 10 ug/mL gentamycin) were dispensed by a Multi-drop Combi into white solid 1536-well plates (Grenier) and 23 nL compound was added by a pin tool. Four microliters of infected erythrocytes (2% hematocrit, 0.1% parasitemia final concentration) in culture medium were dispensed and the plates incubated for 48 hours at 37 C in 5% CO2. Two microliters of luciferase detection reagent was added and luminescence was detected by a ViewLux (PerkinElmer) reader.
On the % scale 0 is the no-effect control and ±100 the full control effect; potency means the concentration at half of the fitted maximal effect; tags describe the fitted curve by direction and shape.

| SMILES | Potency | activity change, negative = inhibition |
| --- | --- | --- |
| O=S(=O)(c1ccc(NC2CCCc3ccccc32)nc1)N1CCOCC1 (stereo not drawn) | inconclusive [inhibitor, single point] | – |
| COC(=O)C1=C(C)N(C)C(=S)NC1c1c(OC)ccc2ccccc12 (stereo not drawn) | inconclusive [inhibitor, single point] | – |
| CCOP(=O)(OCC)C(Nc1ccc([N+](=O)[O-])cc1)c1ccc(Cl)cc1 (stereo not drawn) | inconclusive [inhibitor, single point] | – |
| COc1ccc2c(c1)c(C(=O)N/N=C/c1ccc(Br)cc1)c(C)n2C | inconclusive [inhibitor, partial curve, poor fit] | – |
| CCCCNC(=O)COCc1cc(-c2ccc3c(c2)OCO3)on1 | – | inactive: -1.77% [at 0.00184 µM] |
| CC(C)c1ccc(NC(=O)CCNS(=O)(=O)c2cccc3nonc23)cc1 | inconclusive [inhibitor, single point] | – |
| COc1ccc(N(CC(=O)NC2CCCC2)C(=O)Cn2nnc(-c3ccc(F)cc3)n2)cc1 | inconclusive [inhibitor, single point] | – |
| O=C(Nc1cccc(Cl)c1)N(CCN1CCOCC1)Cc1cccc(Cl)c1 | inconclusive [inhibitor, single point] | – |
| CCOc1ccc(OCc2cccc(C(=O)Nc3ccc(CN4CCCCC4)cc3)c2)cc1 | inconclusive [inhibitor, full curve, poor fit] | – |
| O=C1C=C(NC(=O)Nc2ccc(Cl)c(Cl)c2)CCC1 | inconclusive [inhibitor, single point] | – |
| Cc1ccc(S(=O)(=O)c2c(C(=O)c3ccccc3)cnc3cc4c(cc23)OCCO4)cc1 | inconclusive [inhibitor, single point] | – |
| Cc1ccc(NS(=O)(=O)c2cc(C(N)=O)ccc2C)cc1 | inconclusive [inhibitor, partial curve] | – |
| COc1ccc(OC)c(/C=C/C(=O)OCC(=O)N2CCCC2)c1 | inconclusive [inhibitor, single point] | – |
| Cc1cc(N2CCN(C)CC2)nc2ccc(NC(=S)N3CCCCCC3)cc12 | inconclusive [inhibitor, single point] | – |
| CCOc1ccc(NC(=O)c2ccco2)cc1S(=O)(=O)N1CCCC1 | inconclusive [inhibitor, single point] | – |
| Cc1cccc(NP(C)(=O)c2nc3c(s2)CCCC3)c1 (stereo not drawn) | inactive | – |
| NC(=S)n1[nH]c(-c2ccc([N+](=O)[O-])cc2)c(N=Nc2cccc([N+](=O)[O-])c2)c1=O | inconclusive [inhibitor, partial curve] | – |
| O=C(/C=C/c1ccc([N+](=O)[O-])cc1)NCc1cccs1 | inactive | – |
| Cc1cc(C(C)(C)C)cc(C)c1C[n+]1ccc2ccccc2c1 | active: 1.17 µM | – |
| O=C(CNc1ccccc1OC(F)F)N1CCc2ccccc21 | inactive | – |
| CC(/C=N\NC(=O)c1ccc(C)nc1)=C\c1ccccc1 | inconclusive [inhibitor, single point] | – |
| Cc1ccc(C(=O)C=CNNC(=O)c2ccccc2)cc1 | inactive | – |
| COc1ccc(CCNS(=O)(=O)c2cccc([N+](=O)[O-])c2)cc1 | inactive | – |

| SMILES | Potency | activity change, negative = inhibition |
| --- | --- | --- |
| CCn1cc(C(=O)NCc2cccc(C(F)(F)F)c2)c(=O)c2ccc(C)nc21 | inactive | – |
| CCOC(=O)c1ccccc1NC(=O)COC(=O)CCNS(=O)(=O)c1cccs1 | inconclusive [inhibitor, single point] | – |
| Cc1nn(C)cc1CN(C)Cc1ccc(OCC(O)CN2CCCCC2)cc1 (stereo not drawn) | inconclusive [inhibitor, partial curve] | – |
| CC(=O)c1cccc(S(=O)(=O)N2CCC(C(=O)N(C)Cc3ccc(Cl)s3)CC2)c1 | inconclusive [inhibitor, single point] | – |
| Cn1c(SCC(=O)N/N=C/C=C/c2ccco2)nc2ccccc21 | inactive | – |
| CC1CCN(C(=O)c2ccc(NC(=O)c3ccccc3)cc2)CC1 | inconclusive [inhibitor, partial curve, poor fit] | – |
| Cc1ccc(CSCCNC(=O)/C=C/c2ccccc2Cl)cc1 | inconclusive [inhibitor, single point] | – |
| COc1ccccc1/C=N/N1C(=O)C2C3C=CC(CC3)C2C1=O (stereo not drawn) | inconclusive [inhibitor, full curve, poor fit] | – |
| CCC1CCCCN1C(=O)CSc1nc2c([nH]c3ccccc32)c(=O)n1C (stereo not drawn) | active: 9.28 µM | – |
| Cc1ccc(-c2csc(C3C(N)=NC(S)=C(C#N)C34CCCCC4)n2)cc1 (stereo not drawn) | inconclusive [inhibitor, single point] | – |
| CC1(C)CC(=O)C2=C(C1)OC(N)=C(C#N)C21CCN(C(=O)OCc2ccccc2)CC1 | inactive | – |
| Cc1cc(C(=O)NNC(=O)c2ccc(NC(=O)CC#N)cc2)c(C)o1 | inconclusive [inhibitor, single point] | – |
| Cc1ccc(C(=O)N2CCCC(c3ccccc3)=N2)cc1 | inconclusive [inhibitor, single point] | – |
| Cc1ccc(/C=N/Nc2nncn2N)cc1 | inconclusive [inhibitor, single point] | – |
| CCCCNC(=S)NCc1ccc2c(c1)cc(C)n2C | inconclusive [inhibitor, partial curve, poor fit] | – |
| FC(F)(F)c1ccccc1CN1CCN(C2CCCCCC2)CC1 | inactive | – |
| CCC1C(=O)C(CC)C(c2ccccc2)NC1c1ccccc1 (stereo not drawn) | inactive | – |
| Cn1cc(C2=C(c3ccc(Cl)cc3Cl)C(=O)NC2=O)c2ccccc21 | inconclusive [inhibitor, single point] | – |
| COc1ccc(NC(=O)CN(C)C(=O)c2cccc3ccccc23)cc1 | inconclusive [inhibitor, single point] | – |
| Cc1ccccc1NC(=O)NCCCCc1ccccc1 | inconclusive [inhibitor, single point] | – |
| CCCCNCc1cc(OCC)c(OCC)cc1Br | inactive | – |
| COc1ccc(C)cc1NC(=O)C(=O)c1cn(CC(=O)N2CCCC2)c2ccccc12 | inconclusive [inhibitor, partial curve] | – |
| Cc1c(CC(=O)N2CCN(C(=O)C3COc4ccccc4O3)CC2)c(=O)oc2cc(O)ccc12 (stereo not drawn) | inconclusive [inhibitor, partial curve, poor fit] | – |

| SMILES | Potency | activity change, negative = inhibition |
| --- | --- | --- |
| O=C(NCSc1ccnc(SCNC(=O)c2ccccc2)n1)c1ccccc1 | inactive | – |
| CCCN1Cc2cccc(C(=O)NCc3cccs3)c2C1=O | inconclusive [inhibitor, partial curve] | – |
| CN(C)S(=O)(=O)c1cccc(NC(=O)COC(=O)c2ccc([N+](=O)[O-])o2)c1 | inactive | – |
| Cc1nc(CS(=O)c2ccccc2)cc(N2CCOCC2)n1 (stereo not drawn) | inconclusive [inhibitor, partial curve, poor fit] | – |
| O=C(CCNC(=O)c1ccco1)Nc1ccc(OC(F)(F)F)cc1 | inconclusive [inhibitor, partial curve, poor fit] | – |
| Cc1c(NC(=O)c2cc(-c3ccc(F)cc3)on2)c(=O)n(-c2ccccc2)n1C | inactive | – |
| COc1cc2c(C(=O)NCc3ccc(C)o3)cn(CC(C)C)c(=O)c2cc1OC | inconclusive [inhibitor, partial curve] | – |
| CC(C)CC1Nc2ncnc(N3CCN(c4ccccc4)CC3)c2N(Cc2ccc(Br)cc2)C1=O (stereo not drawn) | active: 2.94 µM | – |
| O=C(NNC(=S)NC1CCCCC1)c1ccccc1Cl | inconclusive [inhibitor, single point] | – |
| Cc1ccnc2ccc(P(=O)(c3ccccc3)c3ccccc3)cc12 | inconclusive [inhibitor, partial curve, poor fit] | – |
| CCN1CC(=O)Nc2cc(S(=O)(=O)N3CCOCC3)ccc21 | inconclusive [inhibitor, partial curve] | – |
| CCOC(=O)C1=NN(c2ccccc2)C(c2ccccc2)CC1=O (stereo not drawn) | inconclusive [inhibitor, single point] | – |
| O=C(CCC1CCCCC1)NCCN1C2=NC[C@@H](Cc3ccccc3)N2C[C@H]1Cc1ccc(O)cc1 | inconclusive [inhibitor, full curve, poor fit] | – |
| Cc1ccc(C)c(N(CC(=O)NC2CCCC2)C(=O)c2cc3cc4cccc(C)c4nc3s2)c1 | inconclusive [inhibitor, partial curve] | – |
| Fc1cccc(Nc2nc(-c3ccncc3)nc3ccccc23)c1 | active: 9.28 µM | – |
| CC(C)(C)OC(=O)N1CCC(C(=O)Nc2ccc3c(c2)CCC3)CC1 | inactive | – |
| COCCNS(=O)(=O)c1cc(-c2nn(C)c(=O)c3ccccc23)ccc1C | inactive | – |
| COc1ccc(/C=C/CN2CCN(Cc3ccc(F)cc3)C(CCO)C2)cc1 (stereo not drawn) | inconclusive [inhibitor, single point] | – |
| O=C(O)/C=C/C(=O)c1c(-c2ccccc2)[nH]c2ccccc12 | active: 6.57 µM | – |
| COc1cc(/C=N/NC(=O)c2cccc([N+](=O)[O-])c2)ccc1OCc1ccccc1 | active: 16.5 µM | – |
| CCCNC(=S)NC1CC2CCCC(C1)N2Cc1ccc(F)cc1 (stereo not drawn) | inconclusive [inhibitor, partial curve, poor fit] | – |
| O=C(Nc1ccc(Cl)cn1)c1ccc([N+](=O)[O-])o1 | inconclusive [inhibitor, single point] | – |
